In all, about 310,000 compounds went through this assay and about 14,000 (4.5%) showed an effect of 50% or more. Effects have a minus sign here. The list shows a part of the results.
Biological target: human ether-à-go-go-related gene (hERG) potassium channel (human, UniProt Q12809)
Assay: primary screen, population patch clamp on CHO cells stably expressing hERG
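Further: peak tail current of the secondary pulse compared with the same well before compound.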

Sequence of human ether-à-go-go-related gene (hERG) potassium channel (Q12809 whole entry, looked up): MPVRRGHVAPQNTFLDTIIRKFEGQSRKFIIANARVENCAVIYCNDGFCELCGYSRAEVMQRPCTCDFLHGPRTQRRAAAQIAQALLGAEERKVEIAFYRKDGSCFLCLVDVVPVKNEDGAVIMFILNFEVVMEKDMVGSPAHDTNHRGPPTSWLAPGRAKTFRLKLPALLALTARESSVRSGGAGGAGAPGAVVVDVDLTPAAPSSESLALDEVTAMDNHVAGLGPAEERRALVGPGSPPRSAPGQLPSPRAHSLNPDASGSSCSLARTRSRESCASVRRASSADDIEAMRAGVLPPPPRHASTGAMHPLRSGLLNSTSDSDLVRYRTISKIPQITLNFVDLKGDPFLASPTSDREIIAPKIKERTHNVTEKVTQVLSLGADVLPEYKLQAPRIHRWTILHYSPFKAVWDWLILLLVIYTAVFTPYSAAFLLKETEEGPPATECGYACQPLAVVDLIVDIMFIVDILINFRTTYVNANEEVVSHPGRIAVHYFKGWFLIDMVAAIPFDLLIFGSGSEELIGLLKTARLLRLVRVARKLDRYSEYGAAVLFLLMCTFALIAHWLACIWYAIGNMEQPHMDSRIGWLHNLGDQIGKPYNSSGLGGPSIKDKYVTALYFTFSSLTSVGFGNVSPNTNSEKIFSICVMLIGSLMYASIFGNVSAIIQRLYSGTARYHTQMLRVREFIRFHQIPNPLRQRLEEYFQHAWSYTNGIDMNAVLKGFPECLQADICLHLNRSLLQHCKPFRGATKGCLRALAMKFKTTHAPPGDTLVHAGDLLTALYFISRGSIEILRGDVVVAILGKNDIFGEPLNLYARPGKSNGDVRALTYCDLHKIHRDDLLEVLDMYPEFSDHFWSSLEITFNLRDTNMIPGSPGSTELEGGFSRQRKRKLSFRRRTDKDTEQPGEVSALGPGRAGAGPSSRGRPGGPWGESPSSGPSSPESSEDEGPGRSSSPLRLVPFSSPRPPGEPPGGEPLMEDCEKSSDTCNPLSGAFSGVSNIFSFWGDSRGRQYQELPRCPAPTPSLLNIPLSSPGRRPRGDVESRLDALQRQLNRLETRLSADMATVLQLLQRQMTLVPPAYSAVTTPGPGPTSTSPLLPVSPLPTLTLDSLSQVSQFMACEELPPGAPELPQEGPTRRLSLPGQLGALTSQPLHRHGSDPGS

SMILES | hERG current change (%, negative = inhibition) at 10uM
Cc1cccc(CSCCNC(=O)COc2ccc(Cl)cc2)c1 | -1.04%
O=C(c1cccnc1)c1cc2ccccc2[nH]1 | 3.05%
O=C(CCCN1C(=O)c2ccccc2C1=O)NCc1cccnc1 | -20.6%
CCCCN(C(=N)N1CCCCC1)c1nc(C)c([N+](=O)[O-])c(=O)[nH]1 | 1.79%
C/C(=N\OC(=O)C1CC1)C1CC1c1ccc(F)cc1 (stereo not drawn) | 7.66%
CCCCC1(CC(=O)OC)C(=O)N(c2ccccc2)N(c2ccccc2)C1=O | -7.76%
CCOC(=O)c1cc2occc2n1CC(=O)NC1CCCCC1C (stereo not drawn) | 9.72%
Cc1cc(C(=O)CN2C(=O)c3cccc(N)c3C2=O)c(C)n1Cc1cccs1 | 6.32%
C[C@H](NC(=O)[C@H]1N2C(=O)c3ccccc3C2SC1(C)C)C(=O)N1CCC[C@H]1C(=O)O (stereo partly drawn) | 22.4%
Cc1c(C(N)=O)sc2ncn(CC(=O)OC(C)C)c(=O)c12 | 11%
CCOC(=O)C(CCc1nnc(N)s1)C(=O)OCC | -2.77%
O=C(Nc1ccc(Cl)cc1)Nc1nc(-c2ccccc2O)cs1 | 11.6%
COc1ccc(Cn2c(C)nc([N+](=O)[O-])c2SCC(=O)O)cc1[N+](=O)[O-] | 16.5%
Cc1[nH]n(-c2ccccc2)c(=O)c1N=Nc1ccc2c(c1)OCCO2 | 16.4%
O=C(O)c1ccc(NC(=O)c2cccc(C(=O)Nc3ccc(C(=O)O)cc3)n2)cc1 | 8.92%
CCCn1nnnc1NCc1cc(Br)ccc1OC | 0.0141%
CC(C)C[C@@H](C)C(=O)N(Cc1ccccc1)c1ccccc1 | -20.2%
CCCNS(=O)(=O)c1ccc(OCC(=O)N2CCN(Cc3ccccc3)CC2)cc1 | -28.6%
COc1cccc(Nc2cc(C)c3ccccc3n2)c1 | 6.21%
CSc1ccccc1NC(=S)Nc1ccc(S(N)(=O)=O)cc1 | 10.7%
CCCCCCCC/C=C\CCCCCCCC(=O)NCCc1ccc(O)c(O)c1 | 8.81%
CCC(CC)c1nnc(NC(=O)CCc2ccc(OC)cc2)s1 | 13.1%

SMILES | hERG current change (%, negative = inhibition) at 10uM
COC(=O)c1[nH]c(C)c(/C(O)=C2\C(=O)C(=O)N(CCN3CCOCC3)C2c2cccnc2)c1C (stereo not drawn) | -29.2%
O=C(Nc1ccccc1)c1cccc(NC(=O)c2ccco2)c1 | -30.5%
COc1ccc(/C=N/NC(=O)c2cc(=O)[nH]c3ccccc23)cc1OC | 20.5%
O=c1c2oc3ccccc3c2[nH]c(=S)n1-c1ccccc1 | 18.2%
Cc1cc(C)n(-c2ccc(S(=O)(=O)N3CCOCC3)cc2[N+](=O)[O-])n1 | -10.9%
COc1cc(/C=C/C(=O)OCC(=O)NCc2ccccc2OC)ccc1O | -14.1%
Cn1c(=O)c2sccc2n(CC(=O)NCCC2=CCCCC2)c1=O | -1.94%
Cc1cc2oc(C(=O)N(Cc3ccc(N(C)C)cc3)CC3CCCO3)c(C)c2cc1C (stereo not drawn) | -17.2%
COc1ccc(NC(=O)c2sc3cc(C(F)(F)F)cnc3c2-c2cccs2)cc1 | -8.76%
CCc1ccc(-c2csc(NC(=O)C3=COCCO3)n2)cc1 | 4.81%
CCOc1ccc(S(=O)(=O)Nc2ccc(C(=O)NCCCN3CCOCC3)cc2)cc1 | -17.4%
COC(=O)C1=C(c2ccccc2OCc2ccccc2)C[C@@H]2CC[C@H]1N2C(=O)NCCOc1ccc(OC)cc1 | 12.9%
COC(=O)c1ccc(N2Cc3ccccc3/C2=N\C(=O)Nc2ccccc2)cc1 | 0.09%
COC(=O)c1ccc(C2C(C(=O)c3cc4ccccc4o3)=C(O)C(=O)N2CCN2CCOCC2)cc1 (stereo not drawn) | 10%
CCOC(=O)C(C(=O)OCC)[C@@H]1CS(=O)(=O)C[C@H]1C(C(=O)OCC)C(=O)OCC | -2.43%
CC(C)CC(NC(=O)C1CCCCC1)C(=O)NC(C)c1ccccc1 (stereo not drawn) | -5.01%
O=C(Nc1ccccc1Cl)C1CCCN(S(=O)(=O)c2cccc3cccnc23)C1 (stereo not drawn) | -3.2%
CC(C)N(CCCNC(=O)Cn1c(=O)c2cccn2c2ccc(F)cc21)Cc1ccccc1 | -44%
COC(=O)c1sc(NC(=O)c2cnccn2)c(C(=O)OC)c1C | 18.7%
Cc1cc(C)nc(Nc2n[nH]c(-c3ccccc3N)n2)n1 | 17.5%
CC(=O)c1cc(F)c(N2CCCCCC2)cc1C | 3.25%
Cc1ccc(-c2nnc(Nc3ccc(CC(N)=O)cc3)c3ccccc23)cc1 | -4.35%

SMILES | hERG current change (%, negative = inhibition) at 10uM
O=C(N/N=C/C(Br)=C/c1ccccc1)c1ccncc1 | 0.715%
CCc1nnc2c3cnn(-c4ccccc4)c3ncn12 | 3.01%
CC12CCC(c3c(C(=O)O)nn(-c4ccccc4)c31)C2(C)C (stereo not drawn) | 0.338%
O=C(Nc1ccc(Cl)cc1)N1CCCC(Cn2cccc2)C1 (stereo not drawn) | 3.58%
C=CCSc1nc2c(cc1C#N)CCC2 | -9.95%
Cc1c(C)n(C)c2ccc(C(=O)NCCCN3CCOCC3)cc12 | 10.8%
CC/C([O-])=N\S(=O)(=O)c1ccc(N=NN(C)C)cc1.[K+] | 0.502%
Cc1ccc(NC(=O)O/N=C/c2cccc([N+](=O)[O-])c2)cc1 | -15.8%
CCc1ccc(NC(=O)/C(C#N)=C/c2cn(CC(=O)O)c3ccccc23)cc1 | 11.6%
CCN1CCN(c2c(S(=O)(=O)c3ccc(C)c(C)c3)cnc3ccc(F)cc23)CC1 | -53.4%
O=C(Nc1ccc(F)c(Cl)c1)C1CCN(c2ncnc3c2nc2n3CCCCC2)CC1 | -31.7%
COc1ccc(CCNC(=O)COc2ncnc3cc([N+](=O)[O-])ccc23)cc1 | -16.5%
CC(C)Oc1ccc(C(=O)NC(=S)Nc2ccc(CN3CCOCC3)cc2)cc1 | -8.75%
O=C(COc1ccccc1)Nc1sc2c(c1C(=O)NCc1cccnc1)CCCC2 | -5.27%
CC(=O)Nc1ccc(OC(F)(F)C(F)F)c(NC(C)=O)c1 | 15.3%
Cc1ccn2c(Nc3ccc4c(c3)OCO4)c(-c3ccccn3)nc2c1 | -67.4%
O=C(CCNC(=O)c1ccco1)Nc1ccc(C(F)(F)F)cc1 | 11.5%
O=c1c2ccccc2nc(-c2ccccc2Cl)n1-c1cccc(O)c1 | 2.55%
Cc1cc(SCNC(=O)c2ccccc2)ncn1 | 11.5%
O=C(CS(=O)(=O)c1cn(Cc2ccc(Cl)cc2)c2ccccc12)N1CCCCC1 | 14.5%
O=C(NCc1ccco1)C1CCCN(S(=O)(=O)c2ccc(Cl)cc2)C1 (stereo not drawn) | -13.2%
O=C(Cn1nc(Cc2ccncc2)c2ccccc2c1=O)N1CCN(C(=O)c2ccco2)CC1 | -26.7%

SMILES | hERG current change (%, negative = inhibition) at 10uM
COc1ccc(OC)c(C(=O)c2coc3ccc(O)c(CN(C)C)c23)c1.Cl | -12.7%
CN(C(=O)COC(=O)c1ccc2c(c1)OCCO2)c1ccccc1 | 5.16%
O=C(CSc1nnc(Cn2cnc3ccccc32)o1)c1ccccc1 | -7.21%
COCC(=O)Nc1ccc(S(=O)(=O)Nc2ccccn2)cc1 | 17.8%
CCn1c(SCC(=O)Nc2ccc(OC)cc2OC)nc2nc3c(cc2c1=O)COC(C)(C)C3 | -2.49%
COc1ccc(CCNC(=O)c2cc3c(F)cccc3s2)cc1OC | -23.9%
O=C(NCC1CCN(Cc2ccccc2F)CC1)Nc1cc(F)ccc1F | -59.9%
CCOC(=O)c1cccc(NC(=O)CCS(=O)(=O)c2cccs2)c1 | -4.36%
Cc1cc(N2C(=O)C(O)=C(C(=O)c3cc4ccccc4o3)C2c2ccc(Cl)cc2)no1 (stereo not drawn) | -32.7%
Cc1ccc2c(c1)C(=C(C#N)C#N)C(=O)N2CCN1CCCCC1 | -16.2%
CCOCCCNC(=O)C(c1ccc(OC)cc1)N(Cc1ccc2c(c1)OCO2)C(=O)CNC(C)=O (stereo not drawn) | 15.3%
Cc1ccc(NC(=O)CCc2nnc3ccc(N4CCN(C)CC4)nn23)cc1F | -44.7%
COc1ccc(CCNC(=O)CSc2cc(=O)[nH]c(N)n2)cc1OC | 4.58%
COc1ccc2[nH]cc(CC(=O)O)c2c1 | 6.94%
COc1cc2ccc(=O)oc2cc1O | 12%
Cc1ccc(-n2cc(CN3CCN(Cc4nccn4C)CC3)c(-c3ccc(F)cc3)n2)cc1 | -26.8%
CCC(c1nnnn1C1CCCC1)N1CCN(c2ccccc2)CC1 (stereo not drawn) | -11.7%
O=C(NC1CCCC1)C(c1cccs1)N(CC1CCCO1)C(=O)Cc1cccs1 (stereo not drawn) | -7.64%
COc1ccc(NC(=O)CN2CCN(c3ccc(C)cc3C)CC2)cc1 | -60.7%
CC(=O)C1=C(C)NC(=O)NC1c1ccc(Cl)cc1 (stereo not drawn) | 4.06%
Cc1cccnc1NC(=O)c1cccc(NC(=O)CC2SC(N3CCCCC3)=NC2=O)c1 (stereo not drawn) | 12.6%
